Hit rate of the full screen: of about 45,000 compounds, about 200 (0.44%) were called active. Roughly 7% stayed inconclusive and do not appear here. Calls come from the whole dose curve; as a rule, active = well fitted activation curve with a large enough effect; inconclusive = small, poorly fitted or top-dose-only effect; inactive = no such curve, though single readings can be large or run the other way. The list shows a part of the results.
assay: qHTS of TDP-43 Inhibitors: NCGC Sytravon Library Screen; conditions: yeast TDP-43 toxicity rescue, BacTiter-Glo growth, 24 h; series mostly up to 46.1 µM; growth rescue (activation): at the top concentration; note: 0% is about no effect; nearly all actives have a fitted effect of over 55% in size
How it was run: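 TDP-43-expressing yeast, pregrown in raffinose, seeded at OD600 0.02 in galactose medium with compound for 24 hr at 30 deg C. Growth read by BacTiter-Glo luminescence, so rescue of toxicity appears as activation.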

| SMILES | growth rescue (activation) |
| --- | --- |
| CCCC(=O)Nc1ccccc1NC(=O)c1ccc(OC(C)=O)cc1 | inactive: -5.08% |
| COc1ccccc1/C=N/NC(=O)NC12CC3CC(CC(C3)C1)C2 | inactive: 10.4% |
| CN(CC(=O)Nc1ccccc1Cl)C(=O)c1ccc(Cl)c(S(=O)(=O)N2CCCCCC2)c1 | inactive: 22.5% |
| O=C(CSc1nnc(-c2ccncc2)o1)Nc1cc(Cl)ccc1C(=O)O | inactive: -1.16% |
| Cc1cccc(CN2CCN(c3nc4nonc4nc3NC3CC3)CC2=O)c1 | inactive: 4.99% |
| O=C(Nc1ccc(S(=O)(=O)Nc2ncccn2)cc1)C12CC3CC(CC(Cl)(C3)C1)C2 | inactive: -1.39% |
| CC(C)(C)c1cc(CN2CCN(CCC#N)CC2)cc(C(C)(C)C)c1O | inactive: 11.7% |
| CCOC(=O)N1CCC(N(CCN(C)C)C(=S)Nc2cc(Cl)ccc2C)CC1 | inactive: 10.9% |
| O=C(/C=C/Nc1cccc(C(F)(F)F)c1)c1ccco1 | inactive: -11% |
| N#CC(c1ccc(=O)[nH]n1)c1ccc(Cl)cc1Cl (configuration not stated) | inactive: -3.32% |
| Cc1ccc(C(=O)NCc2ccncc2)cc1S(=O)(=O)N1CCCCC1 | inactive: 13.1% |
| COc1ccc2oc(=O)c(-c3nnc(NCc4ccco4)s3)cc2c1 | inactive: 13.8% |
| COc1ccc(NC(=O)CNS(=O)(=O)c2ccc3nc(C)sc3c2)c(OC)c1 | inactive: 24.5% |
| O=C(COC(=O)/C=C/c1ccc(OC(F)F)cc1)Nc1ccc2[nH]c(=O)[nH]c2c1 | inactive: 23.6% |
| CCN(CC)S(=O)(=O)c1cccc(NC(=O)COC(=O)/C=C/c2cccs2)c1 | inactive: 13% |
| O=C(Cc1cccs1)N/N=C/c1ccccc1 | inactive: 7.2% |
| O=C(Cn1c(=O)cnc2ccccc21)Nc1cc(Cl)ccc1N1CCOCC1 | inactive: 19.5% |
| CCn1c(SCC(=O)NC2CCCC2)nnc1C(C)C | inactive: -3.54% |
| CNC(=S)N(CCCn1ccnc1)Cc1c(F)cccc1Cl | inactive: 3.16% |
| O=C(NCc1ccccc1)C(c1ccc(O)cc1)N(C(=O)c1cnccn1)c1ccccc1 (configuration not stated) | inactive: 11.5% |
| O=C(/C=C/c1ccc(Cl)cc1)N(Cc1ccccc1)c1ccccn1 | inactive: -8.06% |
| CCOc1ccc(NC(=O)Nc2ccc(Cc3ccncc3)cc2)cc1 | inactive: 6.79% |
| NC(=O)c1ccc(Oc2ccc(Cl)c3ccccc23)c([N+](=O)[O-])c1 | inactive: 11.2% |

| SMILES | growth rescue (activation) |
| --- | --- |
| Cc1ccc(N(C)C(=O)c2ccc(CNc3c(N4CCC(C)CC4)c(=O)c3=O)cc2)cc1 | inactive: 28.9% |
| Cc1cc(NS(=O)(=O)c2ccc(NC(=S)NCc3ccccc3)cc2)no1 | inactive: 9.25% |
| Cc1ccc(N(C(C)C(=O)NCc2ccncc2)S(C)(=O)=O)cc1C (configuration not stated) | inactive: -0.202% |
| COc1cc(OC)cc(C(=O)NC(C)c2ccc(Br)cc2)c1 (configuration not stated) | inactive: 13.1% |
| Cc1ccc(S(=O)(=O)N2CCCCC2)cc1C(=O)NCc1ccncc1 | inactive: -6.9% |
| Cc1ccc(NC(=O)C(C)NS(=O)(=O)c2ccc(F)cc2)cc1C (configuration not stated) | inactive: 2.18% |
| Cc1occc1C(=O)N/N=C/c1ccccc1[N+](=O)[O-] | inactive: 0.81% |
| CCNC(=O)C1CCCN(C(=O)c2cccc3ccccc23)CC1 (configuration not stated) | inactive: -13.5% |
| CCOC(=O)/C(C#N)=C/c1cc2cc(C)c(C)cc2nc1Cl | inactive: 22.3% |
| CC1CCN(c2ccc(/C=C(\C#N)c3nn(-c4ccccc4)c(N)c3C#N)cc2[N+](=O)[O-])CC1 | inactive: 0.0447% |
| O=C(/C=C/c1ccco1)N(Cc1ccc(F)cc1)C1CCS(=O)(=O)C1 (configuration not stated) | inactive: -8.81% |
| COc1ccc(NC(C)=O)cc1S(=O)(=O)Nc1ccccc1C(=O)NCCc1ccccc1 | inactive: 3.31% |
| O=C(N/N=C/C(Br)=C/c1ccccc1)c1cccs1 | inactive: 12.9% |
| Cc1ccc(C(C)(C)C)cc1S(=O)(=O)N1CC(=O)Nc2ccccc21 | inactive: -3.78% |
| CC(=O)c1sc(NC(=O)C2=NN(c3ccccc3)C(=O)CC2)nc1C | inactive: 4.02% |
| COc1ccc(CC(=O)Nc2cc(S(=O)(=O)N3CCOCC3)ccc2N2CCCC2)cc1OC | inactive: -5.75% |
| Cc1cc(-c2ccccc2)nc(N/N=C/c2ccc(O)cc2O)n1 | inactive: 1.93% |
| CC(=O)Nc1cccc(-c2csc(C(C)(NC(C)=O)c3ccccc3)n2)c1 (configuration not stated) | inactive: -6% |
| CCc1ccc(CNC(=O)C2CCN(c3nnc(-n4c(C)ccc4C)s3)CC2)cc1 | inactive: 19.9% |
| COc1ccc(/C=C(\NC(=O)c2ccccc2)C(=O)NCc2ccco2)cc1OC | inactive: 11.6% |
| CCCn1c(=O)c2ccccc2n2c(SC(C)C(N)=O)nnc12 (configuration not stated) | inactive: 9.9% |
| NC(=O)C[N+]1(CC#CC(O)(c2ccccc2)c2ccccc2)CCCC1 | inactive: -3.2% |
| NC(=O)c1ccsc1NC(=O)CSc1nncs1 | inactive: 12.1% |

| SMILES | growth rescue (activation) |
| --- | --- |
| COc1cccc(C(O)c2nc(-c3cccc(C(=O)O)c3)cs2)c1 (configuration not stated) | inactive: 15.7% |
| CCOC(=O)N1CCN(C(=O)C2CCN(Cc3ccc(OC)cc3OC)CC2)CC1 | inactive: -3.46% |
| Cc1ccc(S(=O)(=O)N2CCN(C(=O)CC(C)C)CC2)cc1 | inactive: -10.5% |
| Cc1cc(NC(=O)c2ccc(F)cc2)ccc1NC(=O)c1ccco1 | inactive: 2.22% |
| Cc1cccc2cc(CN(CCN(C)C)C(=S)NCc3ccco3)c(=O)[nH]c12 | inactive: 14.8% |
| COCCOC(=O)c1[nH]c2c(c1C)C(=O)CC(c1cc(OC)c(OC)c(OC)c1)C2 (configuration not stated) | inactive: 7.8% |
| Cc1ccc(C2=[N+]([O-])C(C)(C)N(O)C2(C)C)cc1 | inactive: -2.17% |
| COc1ccc(CCNC(=O)CNC(=O)Cn2ccc3ccccc3c2=O)cc1OC | inactive: 8.86% |
| CC(C)[C@H](NC(=O)c1ccccc1F)C(=O)NCCc1ccccc1 | inactive: 7.98% |
| CCCCc1nnc2c(N(C)S(=O)(=O)c3ccc(C)cc3)nc3ccccc3n12 | inactive: -5.87% |
| CCCn1c(=N)c(S(=O)(=O)c2ccccc2)cc2c(=O)n3cccc(C)c3nc21 | inactive: -5.46% |
| Oc1cccc(NC(=S)N=Nc2c(O)[nH]c3ccccc23)c1 | inactive: 2.47% |
| COCC(=O)N(Cc1cc2ccccc2[nH]c1=O)c1ccccc1OC | inactive: 5.24% |
| CC1=C(C(=O)OCC2CCCO2)C(c2ccc(Cl)c(Cl)c2)NC(=O)N1 (configuration not stated) | inactive: -11% |
| COc1ccc(C2CCCN2C(=S)Nc2ccc(C)cc2C)cc1OC (configuration not stated) | inactive: 18.9% |
| Cc1noc(C)c1C(=O)N1CCCC(C)(C(=O)NS(=O)(=O)C2CC2)C1 (configuration not stated) | inactive: 10.2% |
| CCc1ccccc1Nc1nc2ccccc2n1C | inactive: -5.04% |
| CC(OC(=O)c1cccnc1)C(=O)Nc1ccc2c(c1)OCO2 (configuration not stated) | inactive: -7.59% |
| Cc1cc(O)ccc1Nc1nc(-c2cccs2)cs1 | inactive: -80.2% |
| O=C(Nc1ccc(F)c(Cl)c1)c1csc([C@H]2C[C@H](O)[C@@H](CO)O2)n1 | inactive: 5.95% |
| O=C1NC(NS(=O)(=O)c2ccc(Cl)cc2)(C(F)(F)F)C(=O)N1Cc1cccnc1 (configuration not stated) | inactive: 17.1% |

Reference: PubChem BioAssay AID1347073 (National Center for Advancing Translational Sciences (NCATS), 2019)
